# The list shows a part of the results.
# B1: PX9961C-bth-497-22-497 (Bacteroides thetaiotaomicron) (protein)
# chain: DWLDLNTTSSVETGQAIVTLDDAQIALNGIYRLASGHSYYGDNYWYYGDCRAADVQARITKGDGKRVSPYYEYNVLASDNLNIVLPWNTVYKVIRQTNNLIQKIESGSIQSSDTKELNRIKSEALVMRGLSLFNLTRLFGMPYTNDKGASLGVPIETSPSDPTHKPSRSTVAQCYEQVVSDMSNALSGLRQETSNGYINYWAAQALLSRVYLNMGEYQKAYDAATDVIKNNGGRYQLYSYEEYPNVWGQDFQSESLFELYITLSEPSGGTGGEGAPMVYANEATVDWNNLILSEDFLNLLNEDPKDVRHCLTKESVIENNTGLPAAAMHEKVYLAKFPGKTGDDPKTNNICIIRLSEVYLNAAEAGLKKGTDIEEAQGYLNDIISRRTTDTSQQVSTETFTLDRILKERRKELVGEGEVFYDYLRNGLAIERKGSWHLETLKASNAQKIEATDLRIALPIPQSEIDANPNIQQNPR
# Assays:
# Assay in all cases: glycan array binding signal (z-score within array); higher = stronger binding
# Conditions in all cases: glycan notation: IUPAC condensed, linker removed
# [1] = biological target: Fuc(a1-2)[Gal(a1-4)]Gal(b1-4)GlcNAc
# How it was run: (§1)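 Negative Z-scores can be read as non-binding. The Z-score is calculated within each array and then averaged across arrays of one protein sequence at different concentrations or buffers and across linkers. Arrays, 3228 in all, were curated from the Consortium for Functional Glycomics database and kept only where the protein sequence was available.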
# [2] = biological target: Fuc(a1-2)[GalNAc(a1-3)]Gal
# How it was run: as §1
# [3] = biological target: Fuc(a1-2)[GalNAc(a1-3)]Gal(b1-3)GalNAc(a1-3)[Fuc(a1-2)]Gal(b1-4)GlcNAc
# How it was run: as §1
# [4] = biological target: Fuc(a1-2)[GalNAc(a1-3)]Gal(b1-3)GalNAc(b1-3)Gal(a1-4)Gal(b1-4)Glc
# How it was run: as §1
# [5] = biological target: Fuc(a1-2)[GalNAc(a1-3)]Gal(b1-3)GlcNAc
# How it was run: as §1
# [6] = biological target: Fuc(a1-2)[GalNAc(a1-3)]Gal(b1-3)GlcNAc(b1-2)Man(a1-3)[Fuc(a1-2)[GalNAc(a1-3)]Gal(b1-3)GlcNAc(b1-2)Man(a1-6)]Man(b1-4)GlcNAc(b1-4)GlcNAc
# How it was run: as §1
# [7] = biological target: Fuc(a1-2)[GalNAc(a1-3)]Gal(b1-3)GlcNAc(b1-2)Man(a1-3)[Fuc(a1-2)[GalNAc(a1-3)]Gal(b1-3)GlcNAc(b1-2)Man(a1-6)]Man(b1-4)GlcNAc(b1-4)[Fuc(a1-6)]GlcNAc
# How it was run: as §1
# [8] = biological target: Fuc(a1-2)[GalNAc(a1-3)]Gal(b1-3)GlcNAc(b1-3)GalNAc
# How it was run: as §1
# [9] = biological target: Fuc(a1-2)[GalNAc(a1-3)]Gal(b1-3)GlcNAc(b1-6)GalNAc
# How it was run: as §1
# [10] = biological target: Fuc(a1-2)[GalNAc(a1-3)]Gal(b1-4)Glc
# How it was run: as §1
# [11] = biological target: Fuc(a1-2)[GalNAc(a1-3)]Gal(b1-4)GlcNAc
# How it was run: as §1
# [12] = biological target: Fuc(a1-2)[GalNAc(a1-3)]Gal(b1-4)GlcNAc(b1-2)Man
# How it was run: as §1
# [13] = biological target: Fuc(a1-2)[GalNAc(a1-3)]Gal(b1-4)GlcNAc(b1-2)Man(a1-3)[Fuc(a1-2)[GalNAc(a1-3)]Gal(b1-4)GlcNAc(b1-2)Man(a1-6)]Man(b1-4)GlcNAc(b1-4)GlcNAc
# How it was run: as §1
# [14] = biological target: Fuc(a1-2)[GalNAc(a1-3)]Gal(b1-4)GlcNAc(b1-2)Man(a1-3)[Fuc(a1-2)[GalNAc(a1-3)]Gal(b1-4)GlcNAc(b1-2)Man(a1-6)]Man(b1-4)GlcNAc(b1-4)[Fuc(a1-6)]GlcNAc
# How it was run: as §1
# [15] = biological target: Fuc(a1-2)[GalNAc(a1-3)]Gal(b1-4)GlcNAc(b1-3)Gal(b1-4)GlcNAc
# How it was run: as §1
# [16] = biological target: Fuc(a1-2)[GalNAc(a1-3)]Gal(b1-4)GlcNAc(b1-3)Gal(b1-4)GlcNAc(b1-3)Gal(b1-4)GlcNAc
# How it was run: as §1
# [17] = biological target: Fuc(a1-2)[GalNAc(a1-3)]Gal(b1-4)GlcNAc(b1-3)GalNAc
# How it was run: as §1
# [18] = biological target: Fuc(a1-2)[GalNAc(a1-3)]Gal(b1-4)GlcNAc(b1-3)[Fuc(a1-2)[GalNAc(a1-3)]Gal(b1-4)GlcNAc(b1-6)]GalNAc
# How it was run: as §1
# [19] = biological target: Fuc(a1-2)[GalNAc(a1-3)]Gal(b1-4)GlcNAc(b1-6)GalNAc
# How it was run: as §1
# [20] = biological target: Fuc(a1-2)[GalNAc(a1-3)]Gal(b1-4)[Fuc(a1-3)]GlcNAc
# How it was run: as §1
# [21] = biological target: Fuc(a1-2)[GalNAc(a1-3)]Gal(b1-4)[Fuc(a1-3)]GlcNAc(b1-3)GalNAc
# How it was run: as §1
# [22] = biological target: Fuc(a1-2)[GalNAc(a1-4)]Gal(b1-4)GlcNAc
# How it was run: as §1
# [23] = biological target: Fuc(a1-2)[GalNAc(b1-3)]Gal
# How it was run: as §1
# Fuc(a1-3)GlcNAc = biological target: Fuc(a1-3)GlcNAc
# How it was run: as §1
# [24] = biological target: Fuc(a1-3)[Gal(b1-4)]Glc6S
# How it was run: as §1
# [25] = biological target: Fuc(a1-3)[Gal(b1-4)]GlcNAc
# How it was run: as §1
# [26] = biological target: Fuc(a1-3)[Gal(b1-4)]GlcNAc(b1-2)Man
# How it was run: as §1
# [27] = biological target: Fuc(a1-3)[Gal(b1-4)]GlcNAc(b1-2)Man(a1-3)[Fuc(a1-3)[Gal(b1-4)]GlcNAc(b1-2)Man(a1-6)]Man(b1-4)GlcNAc(b1-4)GlcNAc
# How it was run: as §1
# [28] = biological target: Fuc(a1-3)[Gal(b1-4)]GlcNAc(b1-2)Man(a1-3)[Fuc(a1-3)[Gal(b1-4)]GlcNAc(b1-2)Man(a1-6)]Man(b1-4)GlcNAc(b1-4)[Fuc(a1-6)]GlcNAc
# How it was run: as §1
# [29] = biological target: Fuc(a1-3)[Gal(b1-4)]GlcNAc(b1-3)Gal(b1-3)[Fuc(a1-4)]GlcNAc
# How it was run: as §1
# [30] = biological target: Fuc(a1-3)[Gal(b1-4)]GlcNAc(b1-3)Gal(b1-4)[Fuc(a1-3)]GlcNAc
# How it was run: as §1
# [31] = biological target: Fuc(a1-3)[Gal(b1-4)]GlcNAc(b1-3)Gal(b1-4)[Fuc(a1-3)]GlcNAc(b1-3)Gal(b1-4)[Fuc(a1-3)]GlcNAc
# How it was run: as §1
# [32] = biological target: Fuc(a1-3)[Gal(b1-4)]GlcNAc(b1-3)GalNAc
# How it was run: as §1
# [33] = biological target: Fuc(a1-3)[Gal(b1-4)]GlcNAc(b1-6)GalNAc
# How it was run: as §1
# [34] = biological target: Fuc(a1-3)[Gal(b1-4)]GlcNAc(b1-6)[Gal(b1-3)GlcNAc(b1-3)]Gal(b1-4)Glc
# How it was run: as §1
# [35] = biological target: Fuc(a1-3)[Gal(b1-4)]GlcNAc6S
# How it was run: as §1
# [36] = biological target: Fuc(a1-3)[Gal3S(b1-4)]Glc
# How it was run: as §1
# [37] = biological target: Fuc(a1-3)[Gal3S(b1-4)]GlcNAc
# How it was run: as §1
binder,measurement,setting,value
B1,glycan array binding signal (z-score),[1],-0.405
same,glycan array binding signal (z-score),[2],-0.11
same,glycan array binding signal (z-score),[3],-0.244
same,glycan array binding signal (z-score),[4],-0.32
same,glycan array binding signal (z-score),[5],-0.776
same,glycan array binding signal (z-score),[6],-0.251
same,glycan array binding signal (z-score),[7],-0.189
same,glycan array binding signal (z-score),[8],-0.541
same,glycan array binding signal (z-score),[9],-0.456
same,glycan array binding signal (z-score),[10],-0.509
same,glycan array binding signal (z-score),[11],-0.2
same,glycan array binding signal (z-score),[12],-0.384
same,glycan array binding signal (z-score),[13],0.689
same,glycan array binding signal (z-score),[14],0.399
same,glycan array binding signal (z-score),[15],0.192
same,glycan array binding signal (z-score),[16],0.32
same,glycan array binding signal (z-score),[17],-0.094
same,glycan array binding signal (z-score),[18],-0.164
same,glycan array binding signal (z-score),[19],-0.325
same,glycan array binding signal (z-score),[20],-0.109
same,glycan array binding signal (z-score),[21],-0.32
same,glycan array binding signal (z-score),[22],-0.157
same,glycan array binding signal (z-score),[23],0.454
same,glycan array binding signal (z-score),Fuc(a1-3)GlcNAc,-0.037
same,glycan array binding signal (z-score),[24],-0.096
same,glycan array binding signal (z-score),[25],0.076
same,glycan array binding signal (z-score),[26],1.56
same,glycan array binding signal (z-score),[27],-0.712
same,glycan array binding signal (z-score),[28],-0.096
same,glycan array binding signal (z-score),[29],-0.48
same,glycan array binding signal (z-score),[30],-0.305
same,glycan array binding signal (z-score),[31],0.176
same,glycan array binding signal (z-score),[32],0.476
same,glycan array binding signal (z-score),[33],0.511
same,glycan array binding signal (z-score),[34],-0.071
same,glycan array binding signal (z-score),[35],0.353
same,glycan array binding signal (z-score),[36],-0.401
same,glycan array binding signal (z-score),[37],-0.675

# Source: the supplement of paper PMC8728848
